# Assay results taken from the supplement of paper PMC3334620.
# In all, about 33,000 sequences were measured (“E-score (-0.5 to 0.5)”: median about -0.013, highest 2% from about 0.3 on). This is one part of the list.
# Molecular target: T1, Msn1 (UniProt P22148)
# T1 sequence: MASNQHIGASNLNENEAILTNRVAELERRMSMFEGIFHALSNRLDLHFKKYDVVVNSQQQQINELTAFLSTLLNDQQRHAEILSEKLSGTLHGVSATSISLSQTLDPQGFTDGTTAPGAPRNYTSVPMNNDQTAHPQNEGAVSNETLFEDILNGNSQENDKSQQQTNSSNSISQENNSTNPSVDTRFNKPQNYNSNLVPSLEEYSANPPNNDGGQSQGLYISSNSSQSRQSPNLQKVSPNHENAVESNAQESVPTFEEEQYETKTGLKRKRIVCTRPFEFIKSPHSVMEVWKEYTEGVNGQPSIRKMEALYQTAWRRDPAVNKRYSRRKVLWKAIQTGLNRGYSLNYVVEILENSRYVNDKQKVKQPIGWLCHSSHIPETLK
# Assay: PBM E-score (8-mer binding enrichment) (E-score (-0.5 to 0.5)); higher = stronger / more preferred TF binding; most listed sequences are background and not binding sites
# Conditions: protein concentration: 200 nM; construct: GST-full length
# Procedure, shortened: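 For each ungapped eight-base word taken together with its reverse complement, the Universal PBM Analysis Suite assigned an E-score. Binding data came from GST-tagged yeast transcription factors, applied at about 100-200 nM, on universal all-10-mer Agilent arrays made double-stranded by primer extension. Fluorescent anti-GST marked bound protein, and scans were normalised with masliner.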
row,Sequence,PBM E-score
1,TAGCCCAA,0.0745
2,GTGCACAC,-0.0354
3,CAACAAAC,-0.0143
4,CTAATCCA,-0.00748
5,GAACTATC,-0.11
6,CAGAACCG,-0.0856
7,CGCTGTTC,-0.102
8,CTGTTTGA,0.11
9,GACTTCGC,0.181
10,CCCTAGAC,-0.138
11,AGTCCCTG,-0.0264
12,AATGTAGG,-0.11
13,AGCTGTGG,-0.061
14,GCGCGAAA,0.176
15,ACCGAACG,0.145
16,CCTAAACG,-0.0151
17,GCTCCCTA,-0.334
18,GCTCGGAA,-0.0373
19,GTAAAAAC,0.091
20,AGTTTTAA,0.224
21,AGGCTACG,-0.204
22,ATGGATCA,-0.0149
23,CCTGTGGC,-0.232
24,AAGCCTGG,-0.122
25,CAAATCCC,-0.0311

row,Sequence,PBM E-score
1,AACAGGCT,-0.0468
2,CACAAGAC,-0.118
3,CATATCCA,-0.0731
4,CTGTCCGA,0.275
5,AGCACAGC,-0.111
6,AAGAGTAT,-0.0865
7,AGGCCGAC,-0.172
8,TTGGCCAA,-0.144
9,CAGAACAC,-0.0663
10,TAACTCTA,-0.169
11,GCGCTAGA,-0.116
12,TCGCTAGA,-0.152
13,AAGGTTCA,-0.157
14,TGGCTTAA,0.0667
15,CAGCAGCC,-0.00462
16,CACGCAAC,0.0696
17,AACACCTA,-0.134
18,ACGGTCAC,-0.201
19,CCCATGCC,-0.212
20,GCTACCCC,-0.366
21,CGTACCAC,-0.0887
22,CAGAAGGG,-0.107
23,ACGCCACG,-0.267
24,GACACACA,0.252
25,ATCCGCCC,-0.16

row,Sequence,PBM E-score
1,CCGCCAGA,-0.0748
2,ACACTGTG,-0.158
3,TCCGAACA,0.125
4,AAAGGGGA,-0.155
5,ACACGCAC,-0.0554
6,CGCGCGAC,0.0519
7,GGCGCGAA,0.0134
8,ATATATTA,0.207
9,GTGAACAC,-0.108
10,AGTGACCA,-0.0538
11,TCTTAGCA,0.0404
12,AGTAAGTG,-0.14
13,TCGTTAGA,-0.144
14,ACAACATG,0.0414
15,AGTTCTAT,0.00633
16,ATGCGGAG,-0.00178
17,ACGAGTGA,-0.222
18,CTGTTGGC,-0.138
19,TGTTAGAA,-0.0208
20,ACACCTAT,0.0304
21,GGCTGGGA,-0.21
22,GTATAAAA,0.288
23,GCCTCTCA,-0.25
24,CATCCCGA,0.0979
25,GGTTTCAC,-0.0106

row,Sequence,PBM E-score
1,GTAACTTA,-0.0611
2,CCCAGGCA,-0.0743
3,AACGGCCG,0.142
4,AACCTCTC,-0.312
5,AGACGTAC,0.0857
6,CCGTGAGG,-0.283
7,CGATACTC,-7e-05
8,CGCCGTGC,-0.0986
9,ACATTTAG,0.279
10,TCGATCGA,0.045
11,GATAGGTA,0.142
12,GCTCGCGA,0.0813
13,AATCCTGG,-0.0714
14,GATATCTA,-0.0906
15,CATCGCCA,0.106
16,AAACCCTT,0.121
17,AACTGGCC,-0.00151
18,CCAAGATA,0.0653
19,AGCGTTAT,-0.0134
20,ACGATGTC,0.275
21,CATGCCAG,-0.212
22,GAAGGTGC,-0.167
23,GTTCTCTA,0.0807
24,CGCTTAGA,-0.228
25,AGCGAACG,-0.274

row,Sequence,PBM E-score
1,ACGAATCG,0.0506
2,CGGTTGCA,-0.106
3,CGGAGCCG,-0.104
4,GATACAGA,0.124
5,ATCATGAG,-0.0171
6,GATACCTA,0.0926
7,ATTTCGCC,0.116
8,CGTTTCTA,0.109
9,CGGCTGAC,0.00649
10,CTTCTCGC,-0.0908
11,AGCTACAC,-0.0363
12,AGTGTTTG,0.1
13,TACTAGCA,0.062
14,TCCAGTAA,-0.0623
15,CCCACGAA,0.107
16,CTTAGGAC,0.269
17,ACTGACAC,0.0553
18,AAGGGAAT,-0.00497
19,ATTCCACC,0.189
20,GAGCCGAA,0.144
21,CAAGGCAG,-0.214
22,AGGCGTGA,-0.0733
23,CCTCAAGG,-0.109
24,TGGCGTAA,-0.29
25,CGATCCAC,-0.0959

row,Sequence,PBM E-score
1,ATGCAGGC,-0.112
2,AAAGAGGC,-0.142
3,CGTAATAA,-0.0315
4,TACAGCCA,-0.128
5,TTCCACAA,0.123
6,CGTATCGC,0.0984
7,CGCACTAA,0.17
8,ACGAGGAC,0.324
9,ATCGAAGA,0.0568
10,CTCCTCTC,-0.379
11,GCCCCCAC,-0.309
12,CTGAACGA,-0.0522
13,AAGTACCG,0.151
14,CACGCCTG,-0.169
15,CGCATTGC,0.0594
16,ATGCCGTA,0.0992
17,CGGATCAC,0.181
18,GCCTTACA,-0.25
19,AGTAAGCG,-0.082
20,AAGTTCTC,-0.0185
21,CCACCGTC,-0.324
22,TATGCTAA,-0.0132
23,AGACAGCC,-0.129
24,TATACGGA,0.128
25,CCCTTTAA,0.0255

row,Sequence,PBM E-score
1,CCATCCGC,-0.0442
2,AAGTTTGT,0.297
3,CTCTCTCA,-0.17
4,CATCTCAC,-5e-05
5,CTCCGGCC,-0.107
6,CACACACC,-0.0228
7,AACCGATC,-0.193
8,GTCACATA,0.0793
9,AGCACCAA,0.0195
10,AAGGATTG,0.191
11,ACATCGTG,0.123
12,GACCTTCC,-0.15
13,GACCGGTC,0.0716
14,GTATGTAA,0.0384
15,CACAATTA,0.128
16,ACACGGAC,0.32
17,CCCGTAAA,-0.0814
18,AGGCTCCA,-0.334
19,CATATTAG,0.193
20,ACATGGGA,0.162
21,GGCTTGTA,-0.0834
22,GCGGCCAA,-0.0597
